{"source": "paper PMC12820563", "note": "This is one part of the list. The list includes weakly bound sequences.", "data": [{"target": "T1, MBP-FoxP3dN (UniProt Q99JB6)", "T1 sequence": "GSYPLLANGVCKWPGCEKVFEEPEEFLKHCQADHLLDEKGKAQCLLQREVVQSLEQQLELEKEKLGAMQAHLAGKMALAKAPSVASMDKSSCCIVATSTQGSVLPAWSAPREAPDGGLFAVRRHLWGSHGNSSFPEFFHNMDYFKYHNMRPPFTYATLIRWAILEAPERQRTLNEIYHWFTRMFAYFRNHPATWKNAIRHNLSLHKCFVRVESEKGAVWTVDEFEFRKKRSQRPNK", "test": "PD-seq (MBP pull-down with sequencing)", "conditions": "20 mM Tris-HCl pH 7.5, 100 mM NaCl, 1.5 mM MgCl2, 0.4 uM protein, 0.1 uM dsDNA library, 30 min, room temperature, amylose pull-down; high values mean tight binding; double strand, one strand shown", "values": [{"sequence": "GATGATTGTTCTCCCAGCTGATGAATTCTGGATGTCGAGTAAACAAATTTTCCTAATCTTTCTGTTCAAGCGCCATCTAC", "binding signal (RPM ratio (pull-down/input))": 0.414}, {"sequence": "GATGATTGTTCTCCCAGCTGATGAATTCTAGCCCTCGAGTAAACAAATTTTCCTAATCTTTCTGTTCAAGCGCCATCTAC", "binding signal (RPM ratio (pull-down/input))": 0.421}, {"sequence": "GATGATTGTTCTCCCAGCTGATGAATTGAGACACTCGAGTAAACAAATTTTCCTAATCTTTCTGTTCAAGCGCCATCTAC", "binding signal (RPM ratio (pull-down/input))": 1.41}, {"sequence": "GATGATTGTTCTCCCAGCTGATGAATTATATGACTCGAGTAAACAAATTTTCCTAATCTTTCTGTTCAAGCGCCATCTAC", "binding signal (RPM ratio (pull-down/input))": 0.508}, {"sequence": "GATGATTGTTCTCCCAGCTGATGAATTTACCTCCTCGAGTAAACAAATTTTCCTAATCTTTCTGTTCAAGCGCCATCTAC", "binding signal (RPM ratio (pull-down/input))": 0.573}, {"sequence": "GATGATTGTTCTCCCAGCTGATGAATTTTTAGTCTCGAGTAAACAAATTTTCCTAATCTTTCTGTTCAAGCGCCATCTAC", "binding signal (RPM ratio (pull-down/input))": 0.297}, {"sequence": "GATGATTGTTCTCCCAGCTGATGAATTCTGCTCCTCGAGTAAACAAATTTTCCTAATCTTTCTGTTCAAGCGCCATCTAC", "binding signal (RPM ratio (pull-down/input))": 0.734}, {"sequence": "GATGATTGTTCTCCCAGCTGATGAATTAGTTGCCTCGAGTAAACAAATTTTCCTAATCTTTCTGTTCAAGCGCCATCTAC", "binding signal (RPM ratio (pull-down/input))": 3.87}, {"sequence": "GATGATTGTTCTCCCAGCTGATGAATTATTTATATCGAGTAAACAAATTTTCCTAATCTTTCTGTTCAAGCGCCATCTAC", "binding signal (RPM ratio (pull-down/input))": 1.82}, {"sequence": "GATGATTGTTCTCCCAGCTGATGAATTTCTAGTGTCGAGTAAACAAATTTTCCTAATCTTTCTGTTCAAGCGCCATCTAC", "binding signal (RPM ratio (pull-down/input))": 0.376}, {"sequence": "GATGATTGTTCTCCCAGCTGATGAATTCTTTGGGTCGAGTAAACAAATTTTCCTAATCTTTCTGTTCAAGCGCCATCTAC", "binding signal (RPM ratio (pull-down/input))": 0.275}, {"sequence": "GATGATTGTTCTCCCAGCTGATGAATTCAAGAGATCGAGTAAACAAATTTTCCTAATCTTTCTGTTCAAGCGCCATCTAC", "binding signal (RPM ratio (pull-down/input))": 0.187}, {"sequence": "GATGATTGTTCTCCCAGCTGATGAATTACACTACTCGAGTAAACAAATTTTCCTAATCTTTCTGTTCAAGCGCCATCTAC", "binding signal (RPM ratio (pull-down/input))": 0.573}, {"sequence": "GATGATTGTTCTCCCAGCTGATGAATTTAACCAGTCGAGTAAACAAATTTTCCTAATCTTTCTGTTCAAGCGCCATCTAC", "binding signal (RPM ratio (pull-down/input))": 0.194}, {"sequence": "GATGATTGTTCTCCCAGCTGATGAATTCTTCAGTTCGAGTAAACAAATTTTCCTAATCTTTCTGTTCAAGCGCCATCTAC", "binding signal (RPM ratio (pull-down/input))": 0.238}, {"sequence": "GATGATTGTTCTCCCAGCTGATGAATTTATAGACTCGAGTAAACAAATTTTCCTAATCTTTCTGTTCAAGCGCCATCTAC", "binding signal (RPM ratio (pull-down/input))": 0.775}, {"sequence": "GATGATTGTTCTCCCAGCTGATGAATTTTTGCGCTCGAGTAAACAAATTTTCCTAATCTTTCTGTTCAAGCGCCATCTAC", "binding signal (RPM ratio (pull-down/input))": 0.598}, {"sequence": "GATGATTGTTCTCCCAGCTGATGAATTTATGAGATCGAGTAAACAAATTTTCCTAATCTTTCTGTTCAAGCGCCATCTAC", "binding signal (RPM ratio (pull-down/input))": 0.368}, {"sequence": "GATGATTGTTCTCCCAGCTGATGAATTTACGAGTTCGAGTAAACAAATTTTCCTAATCTTTCTGTTCAAGCGCCATCTAC", "binding signal (RPM ratio (pull-down/input))": 0.556}, {"sequence": "GATGATTGTTCTCCCAGCTGATGAATTGACTCCCTCGAGTAAACAAATTTTCCTAATCTTTCTGTTCAAGCGCCATCTAC", "binding signal (RPM ratio (pull-down/input))": 0.386}, {"sequence": "GATGATTGTTCTCCCAGCTGATGAATTCGCACTCTCGAGTAAACAAATTTTCCTAATCTTTCTGTTCAAGCGCCATCTAC", "binding signal (RPM ratio (pull-down/input))": 0.544}, {"sequence": "GATGATTGTTCTCCCAGCTGATGAATTATAGAATTCGAGTAAACAAATTTTCCTAATCTTTCTGTTCAAGCGCCATCTAC", "binding signal (RPM ratio (pull-down/input))": 0.645}, {"sequence": "GATGATTGTTCTCCCAGCTGATGAATTTCTGTCCTCGAGTAAACAAATTTTCCTAATCTTTCTGTTCAAGCGCCATCTAC", "binding signal (RPM ratio (pull-down/input))": 0.313}, {"sequence": "GATGATTGTTCTCCCAGCTGATGAATTGTAAGGGTCGAGTAAACAAATTTTCCTAATCTTTCTGTTCAAGCGCCATCTAC", "binding signal (RPM ratio (pull-down/input))": 0.368}, {"sequence": "GATGATTGTTCTCCCAGCTGATGAATTCATCTTTTCGAGTAAACAAATTTTCCTAATCTTTCTGTTCAAGCGCCATCTAC", "binding signal (RPM ratio (pull-down/input))": 0.348}, {"sequence": "GATGATTGTTCTCCCAGCTGATGAATTCCGAGAATCGAGTAAACAAATTTTCCTAATCTTTCTGTTCAAGCGCCATCTAC", "binding signal (RPM ratio (pull-down/input))": 0.186}, {"sequence": "GATGATTGTTCTCCCAGCTGATGAATTCCCACTATCGAGTAAACAAATTTTCCTAATCTTTCTGTTCAAGCGCCATCTAC", "binding signal (RPM ratio (pull-down/input))": 0.33}, {"sequence": "GATGATTGTTCTCCCAGCTGATGAATTTACCGTATCGAGTAAACAAATTTTCCTAATCTTTCTGTTCAAGCGCCATCTAC", "binding signal (RPM ratio (pull-down/input))": 0.733}, {"sequence": "GATGATTGTTCTCCCAGCTGATGAATTGATACTCTCGAGTAAACAAATTTTCCTAATCTTTCTGTTCAAGCGCCATCTAC", "binding signal (RPM ratio (pull-down/input))": 0.723}, {"sequence": "GATGATTGTTCTCCCAGCTGATGAATTTGGGGCGTCGAGTAAACAAATTTTCCTAATCTTTCTGTTCAAGCGCCATCTAC", "binding signal (RPM ratio (pull-down/input))": 0.667}, {"sequence": "GATGATTGTTCTCCCAGCTGATGAATTTCTGAAGTCGAGTAAACAAATTTTCCTAATCTTTCTGTTCAAGCGCCATCTAC", "binding signal (RPM ratio (pull-down/input))": 0.186}]}]}
